We go through 31 molecules from publication PMC9911399, “Two distinct binding modes provide the RNA-binding protein RbFox with extraordinary sequence specificity”.

Numbering of substitutions follows the chain as printed; changes in the protein carry UniProt numbers. The list shows a part of the results.

Sequences and labels used below:
B1: UACUGGC (DNA:RNA)
RNA: GGGAGACCGGAAUUCAGAUUGUCCUACUGGCUUAAAUCCCGUCGUAGCCACCA
DNA 1: CAATCTGAATTCCGGTCTCCC
DNA 2: TGGTGGCTACGACGGGATT
B2: UUGCCGA (DNA:RNA)
RNA: B1 RNA with A26U, C27G, U28C, G29C, C31A
DNA 1: CAATCTGAATTCCGGTCTCCC
DNA 2: TGGTGGCTACGACGGGATT
B3: UUCACCC (DNA:RNA)
RNA: B1 RNA with A26U, U28A, G29C, G30C
DNA 1: CAATCTGAATTCCGGTCTCCC
DNA 2: TGGTGGCTACGACGGGATT
B4: UCCCUCA (DNA:RNA)
RNA: B1 RNA with A26C, U28C, G29U, G30C, C31A
DNA 1: CAATCTGAATTCCGGTCTCCC
DNA 2: TGGTGGCTACGACGGGATT
B5: ACAGAUC (DNA:RNA)
RNA: B1 RNA with U25A, A26C, C27A, U28G, G29A, G30U
DNA 1: CAATCTGAATTCCGGTCTCCC
DNA 2: TGGTGGCTACGACGGGATT
B6: UAGAUAG (DNA:RNA)
RNA: B1 RNA with C27G, U28A, G29U, G30A, C31G
DNA 1: CAATCTGAATTCCGGTCTCCC
DNA 2: TGGTGGCTACGACGGGATT
B7: AGCGACA (DNA:RNA)
RNA: B1 RNA with U25A, A26G, U28G, G29A, G30C, C31A
DNA 1: CAATCTGAATTCCGGTCTCCC
DNA 2: TGGTGGCTACGACGGGATT
B8: GACUCGC (DNA:RNA)
RNA: B1 RNA with U25G, G29C
DNA 1: CAATCTGAATTCCGGTCTCCC
DNA 2: TGGTGGCTACGACGGGATT
B9: GCUGCUC (DNA:RNA)
RNA: B1 RNA with U25G, A26C, C27U, U28G, G29C, G30U
DNA 1: CAATCTGAATTCCGGTCTCCC
DNA 2: TGGTGGCTACGACGGGATT
B10: GCAAGGU (DNA:RNA)
RNA: B1 RNA with U25G, A26C, C27A, U28A, C31U
DNA 1: CAATCTGAATTCCGGTCTCCC
DNA 2: TGGTGGCTACGACGGGATT
B11: ACUGUAU (DNA:RNA)
RNA: GGGAGACCGGAAUUCAGAUUGUCCACUGUAUUUAAAUCCCGUCGUAGCCACCA
DNA 1: CAATCTGAATTCCGGTCTCCC
DNA 2: TGGTGGCTACGACGGGATT
B12: AACACUA (DNA:RNA)
RNA: B1 RNA with U25A, U28A, G29C, G30U, C31A
DNA 1: CAATCTGAATTCCGGTCTCCC
DNA 2: TGGTGGCTACGACGGGATT
B13: GAGGCGC (DNA:RNA)
RNA: B1 RNA with U25G, C27G, U28G, G29C
DNA 1: CAATCTGAATTCCGGTCTCCC
DNA 2: TGGTGGCTACGACGGGATT
B14: CUCGGUU (DNA:RNA)
RNA: B11 RNA with A25C, C26U, U27C, U29G, A30U
DNA 1: CAATCTGAATTCCGGTCTCCC
DNA 2: TGGTGGCTACGACGGGATT
B15: UUCGCUC (DNA:RNA)
RNA: B1 RNA with A26U, U28G, G29C, G30U
DNA 1: CAATCTGAATTCCGGTCTCCC
DNA 2: TGGTGGCTACGACGGGATT
B16: ACGCCAU (DNA:RNA)
RNA: B11 RNA with U27G, G28C, U29C
DNA 1: CAATCTGAATTCCGGTCTCCC
DNA 2: TGGTGGCTACGACGGGATT
B17: CUCGAAA (DNA:RNA)
RNA: B11 RNA with A25C, C26U, U27C, U29A, U31A
DNA 1: CAATCTGAATTCCGGTCTCCC
DNA 2: TGGTGGCTACGACGGGATT
B18: GAGGUAG (DNA:RNA)
RNA: B11 RNA with A25G, C26A, U27G, U31G
DNA 1: CAATCTGAATTCCGGTCTCCC
DNA 2: TGGTGGCTACGACGGGATT
B19: ACAUUAC (DNA:RNA)
RNA: B11 RNA with U27A, G28U, U31C
DNA 1: CAATCTGAATTCCGGTCTCCC
DNA 2: TGGTGGCTACGACGGGATT
B20: UUCUAGA (DNA:RNA)
RNA: B1 RNA with A26U, G29A, C31A
DNA 1: CAATCTGAATTCCGGTCTCCC
DNA 2: TGGTGGCTACGACGGGATT
B21: CGGCCCG (DNA:RNA)
RNA: GGGAGACCGGAAUUCAGAUUGUCCCGGCCCGUUAAAUCCCGUCGUAGCCACCA
DNA 1: CAATCTGAATTCCGGTCTCCC
DNA 2: TGGTGGCTACGACGGGATT
B22: UGCGGUC (DNA:RNA)
RNA: B1 RNA with A26G, U28G, G30U
DNA 1: CAATCTGAATTCCGGTCTCCC
DNA 2: TGGTGGCTACGACGGGATT
B23: GGGCUCC (DNA:RNA)
RNA: B21 RNA with C25G, C29U, G31C
DNA 1: CAATCTGAATTCCGGTCTCCC
DNA 2: TGGTGGCTACGACGGGATT
B24: UAAGGGU (DNA:RNA)
RNA: B1 RNA with C27A, U28G, C31U
DNA 1: CAATCTGAATTCCGGTCTCCC
DNA 2: TGGTGGCTACGACGGGATT
B25: GGACUCA (DNA:RNA)
RNA: B21 RNA with C25G, G27A, C29U, G31A
DNA 1: CAATCTGAATTCCGGTCTCCC
DNA 2: TGGTGGCTACGACGGGATT
B26: GCCGGCC (DNA:RNA)
RNA: B1 RNA with U25G, A26C, U28G, G30C
DNA 1: CAATCTGAATTCCGGTCTCCC
DNA 2: TGGTGGCTACGACGGGATT
B27: CACCUAA (DNA:RNA)
RNA: B11 RNA with A25C, C26A, U27C, G28C, U31A
DNA 1: CAATCTGAATTCCGGTCTCCC
DNA 2: TGGTGGCTACGACGGGATT
B28: CAUGGCG (DNA:RNA)
RNA: B21 RNA with G26A, G27U, C28G, C29G
DNA 1: CAATCTGAATTCCGGTCTCCC
DNA 2: TGGTGGCTACGACGGGATT
B29: AGGGGCA (DNA:RNA)
RNA: B21 RNA with C25A, C28G, C29G, G31A
DNA 1: CAATCTGAATTCCGGTCTCCC
DNA 2: TGGTGGCTACGACGGGATT
B30: AAACGAG (DNA:RNA)
RNA: B11 RNA with C26A, U27A, G28C, U29G, U31G
DNA 1: CAATCTGAATTCCGGTCTCCC
DNA 2: TGGTGGCTACGACGGGATT
B31: GCCAUAC (DNA:RNA)
RNA: B11 RNA with A25G, U27C, G28A, U31C
DNA 1: CAATCTGAATTCCGGTCTCCC
DNA 2: TGGTGGCTACGACGGGATT

The target of this assay is T1, RBFOX1 RRM RbFoxmut (Fox-RRM*) (Homo sapiens, UniProt Q9NWB1 109-208, R118D;E147R;N151S;E152T).
T1 sequence: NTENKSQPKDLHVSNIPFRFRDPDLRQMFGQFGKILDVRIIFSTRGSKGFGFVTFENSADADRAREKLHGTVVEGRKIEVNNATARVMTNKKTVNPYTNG
Briefly: EMSA; HiTS-Eq, 1 nM pool, 10 min; buffer printed only for the single-RNA assays: 10 mM Tris pH 7.5, 150 mM NaCl, 3.4 mM EDTA, 0.001% NP-40, 30 C. Particulars: tags: His6 N-terminal (pET28a); label: 5' 32P. The essentials: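 A pool of RNA with 7 randomized nucleotides, 5′-radiolabelled and with DNA-annealed flanks, was equilibrated at 1 nM for 10 min in 50 µL with purified RbFox RRM, wild type or mutant, across increasing protein concentrations. Free RNA was separated by 8% native PAGE, excised, reverse-transcribed, barcoded by PCR and sequenced. Relative association constants were obtained from read-count changes of each RNA species versus the control reaction and normalised to the cognate motif.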
In general terms: In EMSA bound probe runs differently from free probe, usually more slowly.
Turning to B1, the binding signal is 0.0942 KA relative to UGCAUGU. As for B2, the binding signal is 0.0651 KA relative to UGCAUGU.

For B3, the binding signal is 0.0784 KA relative to UGCAUGU. Turning to B4, the binding signal is 0.0963 KA relative to UGCAUGU.

B5: the binding signal was 0.067 KA relative to UGCAUGU. As for B6, the binding signal is 0.0584 KA relative to UGCAUGU. Turning to B7, the binding signal was 0.0755 KA relative to UGCAUGU. Consider B8, for which the binding signal is 0.0909 KA relative to UGCAUGU. With B9, the binding signal is 0.0607 KA relative to UGCAUGU. The figure for B10 is 0.0777 KA relative to UGCAUGU; for B11 it is 0.159 KA relative to UGCAUGU; for B12 it is 0.0893 KA relative to UGCAUGU. Take B13: the binding signal is 0.112 KA relative to UGCAUGU. B14: the binding signal is 0.0952 KA relative to UGCAUGU. As to B15, the binding signal is 0.0629 KA relative to UGCAUGU.

Turning to B16, the binding signal was 0.0658 KA relative to UGCAUGU.

Take B17: the binding signal is 0.0863 KA relative to UGCAUGU. The value for B18 was 0.151 KA relative to UGCAUGU; that for B19 was 0.0999 KA relative to UGCAUGU; that for B20 was 0.0984 KA relative to UGCAUGU. For B21, the binding signal is 0.12 KA relative to UGCAUGU.

With B22, the binding signal is 0.197 KA relative to UGCAUGU. As to B23, the binding signal is 0.0437 KA relative to UGCAUGU. Regarding B24, the binding signal was 0.0766 KA relative to UGCAUGU. Turning to B25, the binding signal was 0.0918 KA relative to UGCAUGU. With B26, the binding signal is 0.192 KA relative to UGCAUGU. For B27, the binding signal is 0.0988 KA relative to UGCAUGU. The figure for B28 is 0.143 KA relative to UGCAUGU.

Consider B29, for which the binding signal was 0.12 KA relative to UGCAUGU. As for B30, the binding signal is 0.0778 KA relative to UGCAUGU. The figure for B31 is 0.0951 KA relative to UGCAUGU.
